Experimental data from PMC12040169 (PLOS Biology, 2025).
The other results are listed elsewhere or left out.

test system: T1, C. trachomatis L2/434/Bu expressing GFP (CTL2-GFP); set-up: species or system HeLa; C. trachomatis total inclusion area by high-content imaging, normalised to DMSO; conditions: total inclusion area; 28.5 h, 10 µM; inhibitor
T1 construct: L2/434/Bu GFP intracellular growth in HeLa cells
How it was run: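 Host cell viability was gauged from Hoechst-stained nuclei counts, while chlamydial growth was taken from total inclusion area and inclusion number per well. Cells were fixed and imaged by high-content microscopy once bulk GFP and resorufin fluorescence had been measured.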

Row | SMILES | % of control remaining
1 | O=C(N1CCn2cnnc2C1)C1(c2ccccc2)CCCC1 [CBK283926] | 81.3419
2 | Cc1ccccc1-c1nnc(-c2ccc(C(=O)N=c3sccn3C)cc2)o1 [CBK298283] | 70.1117
3 | O=C(NCc1ccccc1)c1ccc2[nH]c(=O)c(-c3ccccc3)c(O)c2c1 [CBK160318] | 68.2553
4 | CC(=O)Nc1ccc(OCC(O)Cn2nc(-c3ccco3)oc2=O)cc1 (centres unmarked) [CBK305615] | 67.9684
5 | CC(C)[C@H](CO)Nc1cncc(-c2ccccc2CO)n1 [CBK065326] | 83.2839
6 | c1ccc(CN2CCN(Cc3ccccc3)C2c2ccco2)cc1 [CBK260888] | 78.824
7 | O=C(O)c1ccc(NS(=O)(=O)c2ccc(Br)cc2)cc1 [CBK034058] | 103.099
8 | O=C(c1ccc(-c2nccnc2NCCc2c[nH]c3ccccc23)cc1)N1CCOCC1 [CBK036891] | 110.384
9 | Cc1cnn(C2CCCN(C(=O)Cc3cccs3)C2)c1 (centres unmarked) [CBK304832] | 37.7617
10 | O=C(CN1C(=O)S/C(=C\C=C\c2ccccc2)C1=O)Nc1cccc2c1C(=O)c1ccccc1C2=O [CBK263870] | 106.073
11 | N#Cc1ccc(C(=O)Nc2cncc(OC3CCNCC3)n2)cc1 [CBK036371T] | 98.2789
12 | Cc1ccc(NC(=O)c2cncnc2)c(C)n1 [CBK200380] | 96.5434
13 | O=C1c2cccc3cccc(c23)C(=O)N1CCN1CCN(CC(O)COc2ccccc2)CC1 (centres unmarked) [CBK266255] | 105.278
14 | O=C(/C=C\c1ccccc1)CC1(O)C(=O)N(Cc2cccc3ccccc23)c2ccccc21 (centres unmarked) [CBK264761] | 99.5788
15 | COc1ccc(OC)c(C2C(C(=O)c3ccccc3)=C(O)C(=O)N2CCN2CCOCC2)c1 (centres unmarked) [CBK264748] | 109.405
16 | COc1cccc(-c2cncc(C3CN(Cc4cccc5ncccc45)CCO3)n2)c1 (centres unmarked) [CBK285973] | 87.2783
17 | CC(=O)Nc1ccc(S(=O)(=O)Nc2cccc(C(=O)O)c2)cc1 [CBK050407] | 81.5485
18 | COc1ccc(C(=O)N(C)C)cc1OC [CBK015550] | 61.3013
19 | COc1ccccc1C(CN)C1CCCCC1 (centres unmarked) [CBK009878] | 21.3417
20 | CN(C)C(=O)CN1CC[C@@H](c2ccccc2)[C@H](O)C1 [CBK283979] | 95.2438
21 | Cn1cc([C@@H]2CN(Cc3ccc(F)c(F)c3)C[C@H]2N)c2ccncc21 [CBK285179] | 99.2731
22 | S=c1[nH]cnc2scc(-c3ccc(Cl)cc3)c12 [CBK094069] | 70.6563
23 | O=C(COc1ccc(F)cc1)N1CCCC1c1cccc(Cc2ccc(F)cc2)n1 (centres unmarked) [CBK286235] | 138.485
24 | CCN1CCN(C(=O)CN(c2ccccc2)S(=O)(=O)N(C)C)CC1 [CBK268222] | 88.3375
25 | Cc1[nH]nc(O)c1Cc1ccccc1F [CBK105306] | 54.6223
26 | Cc1cccc(CN2CCC[C@@H]3CN(C(=O)CC(C)C)C[C@@H]32)n1 [CBK285291] | 99.2939
27 | Cc1cc(=O)n2c3ccccc3n(CC(O)CN3CCN(C(c4ccccc4)c4ccccc4)CC3)c2c1C#N (centres unmarked) [CBK268375] | 91.2681

Row | SMILES | % of control remaining
28 | N#Cc1ccc(CNC(=O)c2ccc(-c3ccc(OC(F)(F)F)cc3)nc2)cc1 [CBK156249] | 87.6111
29 | Cn1c(=O)oc2cc(S(=O)(=O)NCc3ccccc3)ccc21 [CBK267568] | 78.4549
30 | c1ccc(CN2CCC3(CC2)CNCc2ccccc2O3)cc1 [CBK282605] | 76.7134
31 | CC(=O)NCC1CC(N2CCSCC2)=NO1 (centres unmarked) [CBK010367] | 70.3513
32 | FC(F)(F)c1cccc(-c2cnn(-c3ccc4c(c3)OCO4)n2)c1 [CBK112664] | 82.0208
33 | CC(=O)C1=C(C)N(CC2CCCO2)C(=O)C1(NC(=O)c1ccc(C(C)(C)C)cc1)C(F)(F)F (centres unmarked) [CBK268043] | 107.725
34 | COc1nn(CC(=O)Nc2cccc(CCc3ccncc3)c2)c(=O)c2ccccc12 [CBK285560] | 99.9978
35 | COc1ccc(Br)c(C(=O)Nc2[nH]nc(O)c2Cc2c(Cl)cccc2Cl)c1 [CBK084554] | 82.3657
36 | Cc1cc2nc(CC(=O)NN)[nH]c2cc1C [CBK012180] | 130.717
37 | O=C(CC1CCCC1)N1CCC(c2nnc(-c3ccsc3)o2)CC1 [CBK283381] | 76.5786
38 | COc1ccccc1C1(O)CCN(Cc2ccccc2OCc2ccc3c(c2)OCO3)CC1 [CBK286337] | 78.4104
39 | OC(COc1ccc2c(c1)OCO2)CN1CCN(C(c2ccccc2)c2ccccc2)CC1 (centres unmarked) [CBK074854C] | 96.6651
40 | CN1CCN(C(=O)c2c(NS(=O)(=O)/C=C/c3ccccc3)sc3c2CCCC3)CC1 [CBK050417] | 108.828
41 | COCC(=O)Nc1ccc(N2CCCC2=O)c(Cl)c1 [CBK256871] | 77.2692
42 | CSc1ccc2cc(CSc3nnc(-c4cccs4)n3CC(=O)O)c(Cl)nc2c1 [CBK295298] | 134.051
43 | O=C(Cc1ccc2c(c1)CCCC2)Nc1cccc(-c2nnn[nH]2)c1 [CBK297129] | 69.1379
44 | Cn1cc(C(=O)Nc2ccccc2N2CCNCC2)c2ccccc21 [CBK034141T] | 97.7624
45 | CCC1(CC)OC(NCc2ccccc2)=NC1=O [CBK122636] | 9.701
46 | O=C(Nc1ccncc1)c1ccc2nc[nH]c2c1 [CBK269034] | 96.9374
47 | Cc1ccc(C(=O)O)cc1NC(=O)C(C)Oc1cccc(Cl)c1 (centres unmarked) [CBK268331] | 83.5513
48 | COc1ccc(CNC(=O)c2sc3ncnc(N(C)C4CCCCC4)c3c2C)cc1 [CBK294431] | 118.288
49 | O=C(Nc1ccc(Cl)cc1)N1Cc2nc[nH]c2C[C@H]1c1nc(-c2ccncc2)no1 [CBK288964] | 82.2543
50 | Fc1cc(Br)ccc1-c1cn(-c2ccccc2)nn1 [CBK113148] | 41.2908
51 | CCOc1cc(C(c2c[nH]c3ccccc23)c2c[nH]c3ccccc23)cc([N+](=O)[O-])c1O [CBK266061] | 82.467
52 | CC(=O)NCCSc1cc(NC(C)C)ncn1 [CBK105293] | 116.724
53 | COC(=O)Cn1cnc2sc(C(=O)Nc3ccccc3OC)c(C)c2c1=O [CBK071808] | 113.586
54 | Cc1cc(C2CCCCCN2C(=O)c2nn(C)cc2Cl)on1 (centres unmarked) [CBK284843] | 97.4998

Row | SMILES | % of control remaining
55 | COc1ccc(/C(C)=N/NC(=O)CSCc2cccc(Br)c2)cc1 [CBK261205] | 94.3282
56 | Cc1ccnc(SCCn2c(N(C)Cc3ccccc3)nc3c2c(=O)n(C)c(=O)n3C)n1 [CBK269394] | 99.555
57 | CCN(CC)CCNc1ncnc(N)c1[N+](=O)[O-] [CBK267287] | 95.059
58 | Cc1ccc(C(=O)Nc2ccc(S(=O)(=O)N3CCCC3)cc2)cc1S(=O)(=O)Nc1ccccc1 [CBK268054] | 13.3209
59 | CCc1cc(-c2n[nH]c(C)c2Oc2ccc(C(C)C)cc2)c(O)cc1O [CBK264940] | 82.4579
60 | Cc1nn(C)cc1C(=O)NC1CCCC1 [CBK057851] | 72.3149
61 | CCC(C)c1nnc(C2(c3ccc(Br)cc3)CCOCC2)o1 (centres unmarked) [CBK306229] | 100.152
62 | CC(Nc1cccc2ccccc12)C(=O)N/N=C/c1ccc(O)cc1O (centres unmarked) [CBK262681] | 24.8882
63 | Cc1cc(C)nc(NC(=O)C(C)Oc2ccc(Cl)cc2Cl)n1 (centres unmarked) [CBK265600] | 89.5506
64 | Cc1cc(NC(=O)c2c(F)cccc2F)nc2c1c(=O)oc1ccccc12 [CBK291115] | 111.861
65 | CCc1nc2ccc(C(=O)Nc3ccc4c(c3)CCN4C(C)=O)cn2c1N(C=O)CC [CBK145944] | 93.6638
66 | O=C(Cc1ccccc1F)NCc1nnc(-c2cccs2)o1 [CBK284632] | 102.621
67 | O=C(/C=C/c1ccc2c(c1)OCO2)Nc1ccc(S(=O)(=O)Nc2cnc3ccccc3n2)cc1 [CBK265445] | 84.4026
68 | COC(=O)c1cnc(Sc2ccc(Cl)cc2)nc1C(F)(F)F [CBK009299] | 0
69 | CC(C)C(NS(=O)(=O)c1ccccc1)C(=O)Nc1ccccc1 (centres unmarked) [CBK270001] | 87.9551
70 | Brc1ccc2nc(NCc3ccccn3)nc(-c3ccccc3)c2c1 [CBK266736] | 83.718
71 | CCNC(=O)N1CC2(CCN(CCCCC3NC(=O)NC3=O)CC2)c2ccccc21 (centres unmarked) [CBK126707] | 94.7224
72 | Cc1nc(CN2CCCC(NCc3cccc(C(N)=O)c3)C2)no1 (centres unmarked) [CBK304929] | 39.2833
73 | Cc1c(C(=O)Nc2nccs2)nnn1-c1ccccc1 [CBK287766] | 84.8897
74 | CC(=O)c1c(C)oc2c1cc(NS(=O)(=O)c1ccc(C(=O)O)cc1)c1ccccc12 [CBK299780] | 75.8632
75 | O=C(C1=C(O)C(=O)N(CCCN2CCOCC2)C1c1ccccn1)c1ccccc1 (centres unmarked) [CBK266604] | 124.462
76 | Cc1cc(Cl)c(OCCNCCN)c(Br)c1 [CBK265079] | 103.816
77 | CCn1c(C)cc(C(=O)NC2CCN(c3ncccc3C#N)CC2)c1C [CBK306524] | 80.9175
78 | c1ccc(CC2CCN(Cc3cccnc3)CC2)cc1 [CBK126381] | 93.3382
79 | Cc1ncsc1CCOc1nccc(C(F)(F)F)n1 [CBK115798] | 84.5094
80 | CCCSc1nc2c(c(=O)[nH]1)C(c1ccncc1)C1=C(CCCC1=O)N2 (centres unmarked) [CBK287606] | 104.14
